In the supplement of paper PMC11417369:
± gives the standard deviation of the averaged measurements. This is one part of the list.

Test system: PfAP2-I AP2 domain 3 (GST-tagged)
Experiment: gcPBM binding intensity (ln(normalized median fluorescence intensity)); higher = stronger DNA binding
Procedure, shortened: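 Plasmodium falciparum DNA-binding domains carrying a GST tag were expressed in E. coli and applied for 1 h, at about 25 μg on average, to an Agilent 4 × 180k array. The array held primer-extended double-stranded 36-bp intergenic genomic probes together with negative controls, and binding took place in 1× PBS with 1% milk, 0.2 mg/ml BSA, 0.5% salmon testes DNA and 0.03% Triton X-100. An Alexa488 anti-GST antibody detected bound protein, and the array was scanned at 488 nm. Binding intensity is taken as the highest Masliner-normalised natural-log median intensity across replicate spots of either probe orientation.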

| Sequence | gcPBM binding intensity (ln) |
| --- | --- |
| TAATAAATAAAAATAGAACACACATATGTTTTTTTT [CACACA_site9185] | 7.47 ± 0.63 |
| AATATAAATAAACACACACACATATATATATATATT [CACACA_site2906] | 7.83 ± 0.45 |
| AAAAAAAAAAAAAAATGTACATATATATAAATAAAA [XGTACX_site5574] | 8.04 ± 0.22 |
| TTAAAATGTTGTAACGTGCACATTTTGTGGAAATCA [GTGCAC_site9559] | 9.1 ± 0.3 |
| TATACAGATGGACACACACACATATATATATATATA [CACACA_site5272] | 9.49 ± 0.47 |
| TTATAATTGTAAGGTAGTACATATAAATCAAATAAT [XGTACX_site7190] | 8.04 ± 0.53 |
| ATGAATCTTTTAAAAAGTACATGTGAAAAAAATAAA [XGTACX_site49] | 7.92 ± 0.39 |
| ATACAAACAATTATTTGTACATAAAATTTTTTTTTT [XGTACX_site90] | 7.65 ± 0.51 |
| TTTTTTTGTTAAAAGGTGCTAATATATATAAGTGCT | 10.1 ± 0.45 |
| GTCCCTATAAGGGGAACACACATAAATGAATATATA [CACACA_site1024] | 7.64 ± 0.41 |
| AAATTTATAAAGAACACACACATATAAATATAAATA [CACACA_site6174] | 7.75 ± 0.76 |
| TTATATATTTATATATGTACACATTTTACCATTTTT [XGTACX_site2142] | 7.79 ± 0.23 |
| TTTCTATATAGATTTGCACACATAAAAATGCTTATA [CACACA_site2390] | 8.86 ± 0.12 |
| CTTTATACATGACATAGTACCCATTTTAGATTTGAA [XGTACX_site5240] | 7.89 ± 0.49 |
| TTTTTTTTTTTTACATGTACATATGAATTATAATAT [XGTACX_site5016] | 8.1 ± 0.67 |
| TATTTTACTTTAAAAATGGAAAAAAAAAAGAATATT [CACACA_negctrl_site1360] | 7.59 ± 0.72 |
| ATTGTCATCATTATATGTACGTAAAAGAATATAGAT [XGTACX_site3117] | 8.39 ± 0.4 |
| GAAAGAAGCATAAATGTACACACATATTTATATATT [CACACA_site8368] | 7.74 ± 0.4 |
| TTAATAAAACTAACACGTACACATATATAATATTAT [XGTACX_site3260] | 8.03 ± 0.45 |
| AAACAAATAGACACTTGTACGTAAGTAAATAATTAA [XGTACX_site6157] | 7.74 ± 0.47 |
| TATGTTAAAAAAAAAAAAAAGAAAAAAATAAAAGGA [CACACA_negctrl_site119] | 7.48 ± 0.54 |
| AAATATAATTAATGATGTACACTTATAGATATTGAT [XGTACX_site8435] | 8.09 ± 0.24 |

| Sequence | gcPBM binding intensity (ln) |
| --- | --- |
| TACTGATATAATATAACCGTTTATGTGTATTTTTTA [XGTACX_negctrl_site81] | 7.32 ± 0.55 |
| TATAATAAAATTTTTACACACTTTAAAAAAAAAAAA [CACACA_site524] | 7.92 ± 0.8 |
| TATTCTCGTTCTCATACACACAAAATATACATACAC [CACACA_site7278] | 8.16 ± 0.39 |
| GGGTTAATATTTACTACACACACTTAAAATATGTAT [CACACA_site47] | 7.92 ± 0.57 |
| ATGTATTTTTAAAAATATAAATTATGTAACTTGTGA [XGTACX_negctrl_site620] | 7.71 ± 0.54 |
| CGTGGAAAAAAAAACACACACAAAAAAAAAAAAAAA [CACACA_site3997] | 8.02 ± 0.59 |
| TTCAAATATATGTTTTCACACACAAAAGAAATGAAA [CACACA_site8671] | 7.74 ± 0.34 |
| TTTTCTCTAAAAAGGTGTACAACTAATAATGCACTG [XGTACX_site6074] | 11.4 ± 0.31 |
| ATATATATATAATATTGTACGAAAAAAAATAAAAAA [XGTACX_site974] | 9.025 ± 0.007 |
| AATAAGAAAACAAATGCACACCATTTATATAGATTA [CACACA_site8261] | 9.44 ± 0.18 |
| ATGGGTTAGGCGTGTACACAATTGTATGGTTTAATA [CACACA_site4812] | 8.44 ± 0.49 |
| TATATTAATTATAAGACACACATATAGTAATAGAAA [CACACA_site2056] | 7.82 ± 0.66 |
| ACATATTTTTACTTTTGTACATATTTTTTAATTTTC [XGTACX_site640] | 8.01 ± 0.69 |
| TTTATATATTTTTATCTTGATAATAATGTTTTAGAA [TGCATGCA_negctrl_site300] | 7.32 ± 0.46 |
| GTATATTACATAAAATGTACATAAAAAGCGGAAAAG [XGTACX_site6905] | 8.41 ± 0.5 |
| TAGATATATAGAATTACACACTTTTCTATAATATGA [CACACA_site6475] | 7.29 ± 0.54 |
| TATATATATAAATGAATGCACTTTAGAAAAAAGTAC | 10.2 ± 0.23 |
| ATATATATTATAATAACACACATATATTATATTATA [CACACA_site406] | 7.83 ± 0.49 |
| ATAAAATAAAACAACACACACGAATGTATAAATATA [CACACA_site4643] | 7.66 ± 0.66 |
| AATAAAATACAAAAATGTACAAATATAATATACATA [XGTACX_site279] | 7.58 ± 0.46 |
| TAATAATATAAATATGCACACAAATTATTACCCAAA [CACACA_site8805] | 8.97 ± 0.47 |
| TAATATAAAATGATAAATGAATGTGATCATTTTATA [CACACA_negctrl_site1034] | 7.32 ± 0.52 |

| Sequence | gcPBM binding intensity (ln) |
| --- | --- |
| ACATACTCAAATAGCACACACATAAATAAAAATGTA [CACACA_site3864] | 8.42 ± 0.099 |
| CATATATATTTTATATGTACATATATATTTTATATA [XGTACX_site8665] | 7.59 ± 0.15 |
| ATATATATTTAAAACGCATGCCTTGTTATATATATA [TGCATGCA_site624] | 8.3 ± 0.57 |
| ATTACAAAAATATATAAACACACAAATATAATATAT [CACACA_site8962] | 7.83 ± 0.56 |
| AATGGAAAAGGTAGTTGTACAACATGTTAAAATGGT [XGTACX_site1312] | 8.52 ± 0.7 |
| ATATAAATATTAATTACACACAAAAAAAAAAAAAAA [CACACA_site6671] | 8.04 ± 0.67 |
| CTCAAAAAATTTCATAGTACTTTAAAATACTATAAT [XGTACX_site1939] | 7.49 ± 0.23 |
| AATAAAAAAAAACGCACACACAAATATATTCCATTC [CACACA_site1224] | 8.3 ± 0.31 |
| ATATAAATAAACAACTTTGTTGGCCTTCCAAAATAT [CACACA_negctrl_site1181] | 7.56 ± 0.45 |
| TTGAAGAATAAATATGCACACATGCATATATTTTTA [CACACA_site5840] | 10.54 ± 0.099 |
| TTTTGTTCTAATATGGGAACATAAATATTAAATATA [CACACA_negctrl_site1787] | 7.45 ± 0.37 |
| ACATTTATATATAATTGTACCCTACATTCTCTTTTT [XGTACX_site189] | 7.74 ± 0.65 |
| GAAAAAAAAAAAAAAAGAAAATTCATATTTTTAATA [XGTACX_negctrl_site513] | 7.11 ± 0.47 |
| AAAAATATATAAACACGTACACACACATATATGTAT [XGTACX_site7436] | 8.16 ± 0.29 |
| TACCAAAAAAAAAAAAAAAATTAAATAAATATGAAA [TGCATGCA_negctrl_site383] | 7.33 ± 0.22 |
| GGGTTGATATATATTTGTACATATTATTATTTATTA [XGTACX_site7116] | 8.04 ± 0.49 |
| ATATATATATATTATGTGCGCATATACCATTTTAAT [GTGCAC_site9575] | 9.35 ± 0.16 |
| TTTATTTTAACTTGTTCACACATTTGAATAAATAAA [CACACA_site5064] | 7.71 ± 0.33 |
| TTTAAAAAAATGAAATAAAAAAAAAATAAAATAAAA [XGTACX_negctrl_site316] | 7.46 ± 0.71 |
| AAATAATTTATATATTGTACAAATATTAAATGCGAA [XGTACX_site3390] | 7.97 ± 0.35 |
| ATATATATAATTTGTACACACAAATATGCATATATA [CACACA_site3432] | 8.05 ± 0.42 |
| AGATATTTTTCTTAAGTACACACTAAATAGAAACTA [CACACA_site44] | 7.88 ± 0.38 |

| Sequence | gcPBM binding intensity (ln) |
| --- | --- |
| TTTTTTTTTTTCAGTTGTACATTGGGAAAATATATA [XGTACX_site4416] | 8.04 ± 0.74 |
| AGTCTGAATAAAATTACACACATATACCTATAAATA [CACACA_site6929] | 7.68 ± 0.56 |
| ATAATATGTAATATTACACACAATTCATCATTTTTT [CACACA_site3159] | 7.58 ± 0.63 |
| ATATACACCGTTGAATGTACATAAATAATATTAATA [XGTACX_site2893] | 7.92 ± 0.34 |
| AGTACATTTTTTTTAATAGGAAAAAAAATATTTATT [TGCATGCA_negctrl_site575] | 7.66 ± 0.57 |
| AAGTATTATTTTTATGCATGTGAAGTGCAAAATAAA [TGCATGCA_site198] | 11 ± 0.43 |
| ATATAATATATATGGTGTACATTTTTTAGTGCTATT [XGTACX_site1662] | 8.23 ± 0.26 |
| AAAAAGTGACTCCTTACACACTTTACATAATTTAGT [CACACA_site4606] | 7.63 ± 0.57 |
| TAAAAGAATAAAAGTAGTACTTTTTTTTATATTAGA [XGTACX_site368] | 7.45 ± 0.3 |
| TCTTTTTTTTTTTATTGTACAAGAAAAGGAAAAAAT [XGTACX_site3717] | 7.87 ± 0.36 |
| ATATTTTTATATTAGTGTACTTATTATAATGTATAG [XGTACX_site8185] | 7.88 ± 0.33 |
| AAGTATGCATTATATACACACATACATTTATATATT [CACACA_site4242] | 8.17 ± 0.49 |
| TTGGTTATACAACACATGCACACGTAAATAAATATT [CACACA_site3841] | 8.27 ± 0.65 |
| TATATATAAAGAGAAACATGCAAAATGTGAATATTC [TGCATGCA_site377] | 8.04 ± 0.85 |
| ATTATGTTAAAAAGGCGTACATGTTATAAGGTCCTA [XGTACX_site344] | 8.11 ± 0.6 |
| TCCTTATAAATATATATATAATATATATATATATAT [CACACA_negctrl_site293] | 8.86 ± 0.2 |
| TATATATATATTTATACACACATTAGTGTAGACATG [CACACA_site8964] | 8.915 ± 0.021 |
| TTGTTCTAATATATTGCACACGTAAAAATATAGGTA [CACACA_site8195] | 9.99 ± 0.41 |
| TTATATATTTTTACCATACACACATATAATAAATAT [CACACA_site3721] | 8.04 ± 0.63 |
| ATAAAGATTTTCCAAGCATGCCACATAGTGAGATAC [TGCATGCA_site594] | 8.09 ± 0.71 |
| ATCATAAAAGTATACACACATACATACATATGTACA [CACACA_site2641] | 7.88 ± 0.48 |
| TATATATATATTATATGTACATATTCCTATATATAC [XGTACX_site7071] | 9.06 ± 0.28 |
